Test results as given in PubChem BioAssay AID2147 (National Center for Advancing Translational Sciences (NCATS), 2009).
“And” between values parts separate entries of the source, which are not always exact repeats. Equal values may be shown once. The whole screen tested about 230,000 compounds, of which about 3,600 (1.6%) were called active. The shares of active, inactive and inconclusive entries below differ from those in the screen. The call rests on the fitted dose curve; in most records, active means well fitted inhibition curve with a large enough effect (not every such curve was filed as active); inconclusive means small, poorly fitted or top-dose-only effect, or another doubt; inactive means no such curve, though single readings can be large or run the other way. Potencies of inconclusive entries are doubtful fits and often do not repeat.

Target: Lysine-specific demethylase 4E (Homo sapiens) (UniProt B2RXH2)
Test: qHTS Assay for Inhibitors of Human Jumonji Domain Containing 2E (JMJD2E)
Settings: JMJD2E catalytic domain, FDH-coupled NADH fluorescence (FDH is formaldehyde dehydrogenase); series mostly up to 57.1 µM; activity change, negative = inhibition: at the top concentration
Further: nearly all actives have a fitted effect of over 50% in size.
Potency means the concentration at half of the fitted maximal effect; tags describe the fitted curve by direction and shape.
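Wherever activity change, negative = inhibition is given: 0% = wells with enzyme and -100% = buffer wells without enzyme.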

Sequence of UniProt B2RXH2 (B2RXH2 whole entry, looked up, the tested form may be a part): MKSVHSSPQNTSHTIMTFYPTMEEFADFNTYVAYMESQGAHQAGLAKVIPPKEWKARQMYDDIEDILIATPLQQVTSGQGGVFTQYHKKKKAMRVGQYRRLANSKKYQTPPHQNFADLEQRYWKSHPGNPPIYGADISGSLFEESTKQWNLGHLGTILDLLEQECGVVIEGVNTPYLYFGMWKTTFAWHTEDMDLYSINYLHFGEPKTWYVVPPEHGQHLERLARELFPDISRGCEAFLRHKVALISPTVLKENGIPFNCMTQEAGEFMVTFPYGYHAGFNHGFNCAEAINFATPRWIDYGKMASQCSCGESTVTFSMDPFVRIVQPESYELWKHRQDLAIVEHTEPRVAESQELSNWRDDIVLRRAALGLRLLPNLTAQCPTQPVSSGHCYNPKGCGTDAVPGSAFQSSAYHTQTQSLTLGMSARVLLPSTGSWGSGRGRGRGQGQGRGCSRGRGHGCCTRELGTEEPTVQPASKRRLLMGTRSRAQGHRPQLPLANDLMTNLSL

SMILES | activity change, negative = inhibition | Potency
O=C(Nc1nc(-c2ccccc2)cs1)Nc1ccc(F)cc1F | inactive: 3.4% | 
Oc1c(C(c2ccco2)N2CCOCC2)sc2ncnn12 (stereo not drawn) |  | inconclusive: 35.5 µM [inhibitor, single point]
OC(COc1ccc2ccccc2c1)CN1CCN(c2ccc(F)cc2)CC1 (stereo not drawn) | inactive: -13.1% | 
CNC(=O)c1c(NC(NC(=O)c2ccco2)C(=O)c2ccc(Cl)cc2)sc2c1CCCC2 (stereo not drawn) |  | inconclusive: 39.8 µM [inhibitor, single point]
COc1cc2cc(Oc3ccc4ccc(=O)oc4c3)c(=O)oc2cc1O |  | inconclusive: 25.1 µM [inhibitor, partial curve] and inconclusive: 35.5 µM [inhibitor, partial curve]
COc1cc2c(cc1OC)C(C(=O)NCc1ccco1)C(c1cccs1)N(C)C2=O (stereo not drawn) |  | inconclusive: 28.2 µM [inhibitor, single point]
CCC(=O)NC1(C(F)(F)F)C(=O)Nc2c1c(=O)[nH]c(=O)n2Cc1ccco1 (stereo not drawn) |  | inconclusive: 28.2 µM [inhibitor, single point]
COc1ccc2c(c1OC)C(Cc1ccccc1)N1CCc3cc4c(cc3C1C2)OCO4 (stereo not drawn) |  | inconclusive: 31.6 µM [inhibitor, partial curve]
CN(CCc1ccccn1)C(=O)CC1C(=O)NCCN1Cc1ccccc1C(F)(F)F (stereo not drawn) |  | inconclusive: 39.8 µM [inhibitor, single point]
Cc1occc1C(=O)Nc1sc2c(c1C(N)=O)CCCCC2 |  | inconclusive: 39.8 µM [inhibitor, single point]
COc1cccc(/C=N/n2cncn2)c1OCC#N |  | inconclusive: 14.1 µM [inhibitor, partial curve]
C=CCc1cccc2cc(C(=O)Nc3ccc(CC(=O)O)cc3)c(=O)oc12 | inactive: -2.45% | 
COc1ccc(CCNc2nc(-c3ccccn3)cs2)cc1OC |  | inconclusive: 22.4 µM [inhibitor, partial curve]
Cc1ccc(OCC(=O)Nc2ccc(-c3nc4ncccc4o3)cc2)cc1 |  | inconclusive: 3.55 µM [inhibitor, partial curve]
N#CC1=CN(Cc2ccccc2)C=C(/C=N/Nc2ccccc2)C1 |  | inconclusive: 28.2 µM [inhibitor, partial curve]
CN(C)CCCn1c(SCC(=O)Nc2sc3c(c2C#N)CCCC3)nnc1-c1ccncc1 |  | inconclusive: 25.1 µM [inhibitor, single point]
COc1ccc(C2CC(c3cccs3)=Nc3ccccc3S2)cc1 (stereo not drawn) | inactive: 3.44% | 
COc1cccc(-n2c([S-])c(C(=O)Nc3ccc(S(=O)(=O)N4CCOCC4)cc3)[n+]3cc(C(N)=O)ccc23)c1 |  | active: 14.1 µM
COc1ccc(/C=C\c2onc(C)c2S(=O)(=O)N2CCC(C(=O)NCc3ccco3)CC2)cc1 |  | inconclusive: 35.5 µM [inhibitor, single point]
CCC1(C)Cc2ccccc2-c2nc(NCCO)n(-c3ccccc3)c(=O)c21 (stereo not drawn) |  | inconclusive: 28.2 µM [inhibitor, partial curve]
CNC(=O)/C(C#N)=C\c1ccc(CNS(=O)(=O)c2ccccc2)o1 | inactive: 3.05% | 
O=C(CCCN1C(=O)c2cccc3cccc(c23)C1=O)Nc1ccon1 |  | inconclusive: 28.2 µM [inhibitor, partial curve]

SMILES | activity change, negative = inhibition | Potency
Cc1occc1C(=O)NCCCCc1ccccc1 | inactive: 1.21% | 
Cn1c(Cl)cnc1C1CC(=O)c2cc(Cl)ccc2O1 (stereo not drawn) | inactive: -29.6% | 
CCOc1ccc(C(=O)NC(=S)Nc2cccnc2)cc1[N+](=O)[O-] | inactive: -0.776% | 
CCOC(=O)CCNC(=O)Nc1ccc2nc(C)n(Cc3ccccc3Cl)c(=O)c2c1 |  | inconclusive: 3.16 µM [inhibitor, single point]
O=c1[nH]c2sc3c(c2c2nncn12)CCCC3 |  | inconclusive: 35.5 µM [inhibitor, single point]
Cc1[nH]c2ccc(C(C)C)cc2c1CC(=O)O |  | inconclusive: 39.8 µM [inhibitor, single point]
CCOCC(=O)Nc1ccc(-c2cn3cccnc3n2)cc1 |  | inconclusive: 31.6 µM [inhibitor, partial curve]
Nc1cc(Cl)nc(N/N=C/c2ccc([N+](=O)[O-])cc2)n1 | inactive: 4.33% | 
CCC1(CC)Cc2ccccc2-c2nc(NCCO)[nH]c(=O)c21 |  | inconclusive: 20 µM [inhibitor, partial curve]
CCn1cc(C(=O)NCc2ccccc2)c(=O)c2cc(F)c(N3CCN(C(=O)c4ccco4)CC3)cc21 |  | inconclusive: 31.6 µM [inhibitor, partial curve]
CN1CCN(C(=S)c2ccc(N(C)C)cc2)CC1 |  | inconclusive: 39.8 µM [inhibitor, single point]
Cc1ccc(C(=O)N(Cc2nc(-c3ccc(C)cc3)no2)C(C)C)cc1 | inactive: -5.18% | 
CSc1nc(Oc2ccc3ccccc3c2)c2ccccc2n1 |  | inconclusive: 14.1 µM [inhibitor, partial curve]
On1c(-c2ccc(Cl)cc2)nc2ccccc21 |  | inconclusive: 35.5 µM [inhibitor, single point]
CCOc1ccc(-c2nc(C#N)c(NCC3CCCO3)o2)cc1 (stereo not drawn) |  | inconclusive: 25.1 µM [inhibitor, partial curve]
COc1ccc(/C=C(/NC(=O)c2ccccc2)C(=O)N/N=C/c2ccc3c(c2)OCO3)cc1OC |  | inconclusive: 39.8 µM [inhibitor, single point]
CCCc1nc(-c2cc3ccc(C)cc3[nH]c2=O)no1 |  | inconclusive: 20 µM [inhibitor, partial curve]
COc1ccc(/C=N/NC(=O)c2nc(-c3ccccc3)n(-c3ccccc3)n2)cc1 |  | inconclusive: 39.8 µM [inhibitor, single point]
O=C(NC(=S)N1CCN(Cc2ccccc2)CC1)c1cccnc1 | inactive: -1.9% | 
CCOC(=O)c1c(-c2ccc(Cl)cc2)c(C#N)c(=O)n(N)c1N |  | inconclusive: 35.5 µM [inhibitor, single point]
COc1ccc(N2CCN(C(=O)c3ccc4c(c3)[nH]c(=S)n3c5ccccc5nc43)CC2)cc1 |  | inconclusive: 31.6 µM [inhibitor, partial curve]
